The values below come from publication PMC4336329 (PLoS ONE, 2015).

About 2,200 (0.71%) of roughly 310,000 compounds showed an effect of 50% or more. The effect is printed as a negative number. The list shows a part of the results.

In this test the target is human ether-à-go-go-related gene (hERG) potassium channel (human, UniProt Q12809). Briefly: primary screen, population patch clamp on CHO cells stably expressing hERG.
Chain of human ether-à-go-go-related gene (hERG) potassium channel (Q12809 whole entry, looked up): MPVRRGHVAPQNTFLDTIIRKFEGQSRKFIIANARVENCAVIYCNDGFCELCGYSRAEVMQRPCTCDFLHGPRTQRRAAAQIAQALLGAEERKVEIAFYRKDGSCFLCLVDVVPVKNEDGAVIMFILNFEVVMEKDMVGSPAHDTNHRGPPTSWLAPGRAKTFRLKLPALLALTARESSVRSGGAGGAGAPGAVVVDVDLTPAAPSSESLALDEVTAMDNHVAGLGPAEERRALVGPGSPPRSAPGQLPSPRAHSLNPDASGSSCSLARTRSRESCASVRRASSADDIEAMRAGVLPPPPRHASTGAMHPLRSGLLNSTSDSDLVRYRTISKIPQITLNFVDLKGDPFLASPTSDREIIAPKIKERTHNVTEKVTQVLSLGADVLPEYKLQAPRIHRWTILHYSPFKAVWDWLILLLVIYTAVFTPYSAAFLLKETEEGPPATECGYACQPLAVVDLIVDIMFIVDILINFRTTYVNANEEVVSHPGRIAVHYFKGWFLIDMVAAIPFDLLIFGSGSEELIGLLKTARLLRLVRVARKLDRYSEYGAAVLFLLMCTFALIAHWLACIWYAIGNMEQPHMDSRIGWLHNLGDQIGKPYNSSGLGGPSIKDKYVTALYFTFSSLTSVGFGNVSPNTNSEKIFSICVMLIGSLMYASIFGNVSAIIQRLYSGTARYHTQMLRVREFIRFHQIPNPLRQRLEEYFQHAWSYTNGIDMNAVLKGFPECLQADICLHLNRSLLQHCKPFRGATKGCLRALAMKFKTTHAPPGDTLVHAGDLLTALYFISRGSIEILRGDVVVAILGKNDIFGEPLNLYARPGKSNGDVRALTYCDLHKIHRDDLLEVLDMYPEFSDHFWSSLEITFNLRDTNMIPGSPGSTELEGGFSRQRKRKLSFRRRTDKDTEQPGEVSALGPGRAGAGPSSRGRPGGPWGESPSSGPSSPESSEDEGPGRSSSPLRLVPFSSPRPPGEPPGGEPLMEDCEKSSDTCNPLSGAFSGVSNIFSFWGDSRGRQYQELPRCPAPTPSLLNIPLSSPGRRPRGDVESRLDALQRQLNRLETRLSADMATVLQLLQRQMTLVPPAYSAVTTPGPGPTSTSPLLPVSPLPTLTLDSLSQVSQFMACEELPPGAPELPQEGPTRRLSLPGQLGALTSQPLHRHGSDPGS
As for `CCCCSc1nnc(-c2ccccc2NC(C)=O)c(=O)[nH]1`, the “hERG current change (%, negative = inhibition) at 1uM” value is 11.3%.
On to `CCc1ccc(-c2cc(C(=O)Nc3c(C)n(C)n(-c4ccccc4)c3=O)c3ccccc3n2)s1`, for which the “hERG current change (%, negative = inhibition) at 1uM” value is on record as 4.82%.
The figure for `COc1ccc(Br)cc1S(=O)(=O)NCCCN1CCOCC1` is 9.27%; for `Cc1cc(C)nc(NC(=O)c2ccc(C)c(C)c2)n1` it is 15.8%; for `COc1ccc(-n2cc(-c3ccccc3)c3c(NCCOCCO)ncnc32)cc1` it is 11.1%.
As to `N#Cc1c(-c2cccc(Br)c2)cc(-c2cccnc2)nc1N`, the “hERG current change (%, negative = inhibition) at 1uM” value is given as 8.03%.
In the case of `O=C(CNC(=O)N1CC(=O)Nc2ccccc21)NCc1ccccc1Cl` it was 14.1%; in that of `COc1ccccc1NC(=S)N/N=C1\CC(C)(C)Oc2ccc(O)cc21`, 4.73%.
The figure for `Cc1cc(C)cc(N(C(=O)c2sc(C)nc2C)C(C(=O)NC(C)(C)C)c2ccncc2)c1` (stereo not drawn) is 32.7%.
The figure for `COc1ccccc1Oc1c(C)oc2cc(OC(=O)N(C)C)ccc2c1=O` is 9.22%.
As to `Cc1nn(-c2cccc(C(F)(F)F)c2)c(=O)c2ccccc12`, the “hERG current change (%, negative = inhibition) at 1uM” value was found to be 14.4%.
As to `Cl.O=C(CN1CCCC1)N1c2ccccc2Sc2ccc(Cl)cc21`, the “hERG current change (%, negative = inhibition) at 1uM” value came to 8.51%.
In the case of `Cc1ccc(CNC(=O)/C=C/c2c(Cl)cccc2Cl)cc1` it was 9.88%; in that of `Cc1cccc(C2=NCC(=O)N(CC(=O)NCc3ccco3)c3sc4c(c32)CCCC4)c1`, 9.72%; in that of `CC(C)N1C(=O)CCC1C(=O)NCc1cccs1` (stereo not drawn), 14.2%.
`COc1cc(C2C(C#N)=C(N)N(c3ccc(F)cc3)C3=C2S(=O)(=O)CC3)ccc1O` (stereo not drawn): the “hERG current change (%, negative = inhibition) at 1uM” value is 13%.
`O=c1[nH]c(SCc2cccc([N+](=O)[O-])c2)nc2[nH]ncc12`: the “hERG current change (%, negative = inhibition) at 1uM” value is reported as -1.4%.
In the case of `O=C(NCc1cccc(F)c1)C1CCC(=O)N(C2CCCC2)C1` (stereo not drawn) it was 3.7%.
The figure for `O=Cc1cc([N+](=O)[O-])ccc1N1CCN(Cc2ccc3c(c2)OCO3)CC1` is -66.7%; for `Nc1ccc2nc(-c3ccc(Cl)cc3)[nH]c2c1` it is 8.65%; for `COC(=O)c1ccc(N2CCN(C)CC2)c(NC(=O)COc2ccccc2)c1` it is -7.22%.
In the case of `COc1ccc(N2C(=NC(C)=O)SC3CS(=O)(=O)CC32)cc1OC` (stereo not drawn) it was 1.39%; in that of `O=C(CSc1n[nH]c(=O)n1C1CC1)Nc1ccc(Cl)c(Cl)c1`, -9.47%; in that of `Cc1cccc(-n2c(CCn3nc(C)c([N+](=O)[O-])c3C)n[nH]c2=S)c1`, 1.58%.
`COC(=O)c1ccccc1NC(=O)NCCc1ccc(OC)c(OC)c1.Cl`: the “hERG current change (%, negative = inhibition) at 1uM” value came out at 18.5%.
Turning to `Cc1cc(N2C(=O)CC(N3CCN(c4ccc(C(=O)c5cccs5)cc4)CC3)C2=O)no1` (stereo not drawn), the “hERG current change (%, negative = inhibition) at 1uM” value was found to be 6.53%.
With `CCOC(=O)c1[nH]cnc1C(=O)Nc1ccncc1`, the “hERG current change (%, negative = inhibition) at 1uM” value came to 9.31%.
`COc1ccc(C(=O)Nc2ccccc2NC(=O)c2ccco2)cc1OC`: the “hERG current change (%, negative = inhibition) at 1uM” value is -9.39%.
In the case of `CCCn1nnnc1NC(=O)c1ccc2ccccc2c1` it was 11.2%; in that of `C=C1C(=O)O[C@@H]2C[C@@H](C)[C@@H]3C=CC(=O)[C@@]3(C)[C@@H](OC(=O)CC(=O)O[C@H]3[C@@H]4C(=C)C(=O)O[C@@H]4C[C@@H](C)[C@@H]4C=CC(=O)[C@]43C)[C@H]12`, -2.24%.
In the case of `CCCc1cc(C(=O)Cc2ccc(C(=O)OCC)o2)c(O)cc1O` it was 10.7%; in that of `COc1ccc(-n2c(Cc3cccn3C)nnc2SCC(=O)Nc2ccc(F)cc2F)cc1`, -7.38%; in that of `CSc1nc(NC(C)=O)nc(C)c1Br`, 4.71%.
Turning to `O=C(Nc1cc(C(F)(F)F)ccc1Cl)c1cccc(N2C(=O)CCC2=O)c1`, the “hERG current change (%, negative = inhibition) at 1uM” value stood at 16.8%.
The figure for `COc1ccc(NC(=O)CC(CC(=O)O)c2cc(OC)c(OC)c(OC)c2)cc1` (stereo not drawn) is 6.21%.
The figure for `CC(C)Sc1ncnc2c1oc1ccccc12` is 7.79%; for `O=C(CSc1ccc(Cl)cc1)NCC1CCCO1` (stereo not drawn) it is 5.01%.
In the case of `CSCC[C@@H](CO)NC(=O)c1ccc2nc(C3CCCCC3)oc2c1`, the “hERG current change (%, negative = inhibition) at 1uM” value was found to be 9.24%.
Turning to `COc1cccc(CN2CCN(C(=O)c3oc4c(F)cccc4c3C)CC2=O)c1`, the “hERG current change (%, negative = inhibition) at 1uM” value is given as 10.7%.
As to `Cc1ccc(CNC(=O)C2=CCN(S(=O)(=O)c3ccc(C)cc3)CC2)cc1`, the “hERG current change (%, negative = inhibition) at 1uM” value is given as -0.106%.
The figure for `COc1ccccc1C(=O)NCCC(=O)N(C)Cc1cccs1` is 5.95%.
In the case of `O=[N+]([O-])c1cccc(CN2CCCCCC2)c1` it was 11.4%; in that of `N#C/C(=C/c1ccc(-c2ccccc2)o1)c1nc(-c2cccs2)cs1`, 12.2%.
In the case of `O=C(Nc1ccccc1)Nc1ccccc1Br` it was 5.45%.
`NC(=O)CC(NC(=O)Cc1ccc(Br)cc1)c1ccc(NCCOc2ccccc2)c([N+](=O)[O-])c1` (stereo not drawn): the “hERG current change (%, negative = inhibition) at 1uM” value worked out at 3.53%.
